{"sequences": {"note": "Chains of the proteins cited; added tags and fusions are not shown.", "UniProt Q16254": "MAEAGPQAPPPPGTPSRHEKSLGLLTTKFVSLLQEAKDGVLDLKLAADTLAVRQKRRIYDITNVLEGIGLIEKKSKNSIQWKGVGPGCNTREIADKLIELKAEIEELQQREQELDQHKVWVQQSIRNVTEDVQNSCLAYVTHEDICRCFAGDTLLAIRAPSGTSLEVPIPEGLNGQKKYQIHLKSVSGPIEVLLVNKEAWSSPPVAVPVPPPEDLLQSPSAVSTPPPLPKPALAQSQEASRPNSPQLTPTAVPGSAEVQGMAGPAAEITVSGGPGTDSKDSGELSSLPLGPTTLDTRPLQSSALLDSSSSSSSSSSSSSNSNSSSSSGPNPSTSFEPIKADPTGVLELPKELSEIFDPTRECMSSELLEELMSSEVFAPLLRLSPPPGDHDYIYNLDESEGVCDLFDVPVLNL", "UniProt P03129": "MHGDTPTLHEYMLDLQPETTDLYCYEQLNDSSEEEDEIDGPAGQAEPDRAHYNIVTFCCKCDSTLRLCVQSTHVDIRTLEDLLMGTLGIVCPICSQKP"}, "source": "paper PMC10117100", "key": {"[1]": {"target": "endogenous E2F4 (38HK) (human (endogenous in 38HK)) (UniProt Q16254)", "test": "co-IP; nuclear extracts of 38HK stably expressing HA-ΔNp73α, sucrose gradient, fractions precipitated with anti-E2F4 Sepharose beads, Western blot"}, "[2]": {"target": "T1, endogenous E2F4 (38HK) (human (endogenous in 38HK)), Q16254", "test": "co-IP; total 38HK nuclear extract, anti-E2F4 antibody or IgG, Western blot of endogenous proteins", "conditions": "remark: other sources report otherwise"}, "[3]": {"target": "T1, endogenous E2F4 (38HK) (human …)", "test": "co-IP; nuclear extracts of 38HK stably expressing HA-ΔNp73α, sucrose gradient, fractions precipitated with anti-E2F4 Sepharose beads, Western blot", "conditions": "remark: other sources report otherwise"}, "[4]": {"target": "Gluc1-16.E7 (human papillomavirus type 16) (UniProt P03129)", "test": "split reporter; Gaussia princeps protein complementation assay (GPCA): Gluc1 and Gluc2 N-terminal fusions co-transfected in HEK293T, luminescence of lysates after 48 h as normalized luminescence ratio (NLR); pairs count as interacting if NLR is above 5"}, "[5]": {"target": "endogenous E2F4 (38HK) (human (endogenous in 38HK)) (UniProt Q16254)", "test": "co-IP; total 38HK nuclear extract, anti-E2F4 antibody or IgG, Western blot of endogenous proteins"}}, "note": "Results are given in words; binding and its absence hold for the method and conditions named. Binding seen in cells or lysates may run through a third protein. Some entries that bind do so weakly or less than the wild type. For part of these data: Tags and fused reporters may be left off the sequences shown.", "data": [{"binder": "HA-ΔNp73α (protein, UniProt O15350-8 1-587) MLYVGDPARHLATAQFNLLSSTMDQMSSRAASASPYTPEHAASVPTHSPYAQPSSTFDTMSPAPVIPSNTDYPGPHHFEVTFQQSSTAKSATWTYSPLLKKLYCQIAKTCPIQIKVSTPPPPGTAIRAMPVYKKAEHVTDVVKRCPNHELGRDFNEGQSAPASHLIRVEGNNLSQYVDDPVTGRQSVVVPYEPPQVGTEFTTILYNFMCNSSCVGGMNRRPILIIITLEMRDGQVLGRRSFEGRICACPGRDRKADEDHYREQQALNESSAKNGAASKRAFKQSPPAVPALGAGVKKRRHGDEDTYYLQVRGRENFEILMKLKESLELMELVPQPLVDSYRQQQQLLQRPSHLQPPSYGPVLSPMNKVHGGMNKLPSVNQLVGQPPPHSSAATPNLGPVGPGMLNNHGHAVPANGEMSSSHSAQSMVSGSHCTPPPPYHADPSLVSFLTGLGCPNCIEYFTSQGLQSIYHLQNLTIEDLGALKIPEQYRMTIWRGLQDLKQGHDYSTAQQLLRSSNAATISIGGSGELQRQRVMEAVHFRVRHTITIPNRGGPGGGPDEWADFGFDLPDCKARKQPIKEEFTEAEIH", "values": [{"measurement": "binding", "setting": "[1]", "value": "binds"}]}, {"binder": "endogenous p130 (38HK), Q08999 1-1139 (protein) MPSGGDQSPPPPPPPPAAAASDEEEEDDGEAEDAAPPAESPTPQIQQRFDELCSRLNMDEAARAEAWDSYRSMSESYTLEGNDLHWLACALYVACRKSVPTVSKGTVEGNYVSLTRILKCSEQSLIEFFNKMKKWEDMANLPPHFRERTERLERNFTVSAVIFKKYEPIFQDIFKYPQEEQPRQQRGRKQRRQPCTVSEIFHFCWVLFIYAKGNFPMISDDLVNSYHLLLCALDLVYGNALQCSNRKELVNPNFKGLSEDFHAKDSKPSSDPPCIIEKLCSLHDGLVLEAKGIKEHFWKPYIRKLYEKKLLKGKEENLTGFLEPGNFGESFKAINKAYEEYVLSVGNLDERIFLGEDAEEEIGTLSRCLNAGSGTETAERVQMKNILQQHFDKSKALRISTPLTGVRYIKENSPCVTPVSTATHSLSRLHTMLTGLRNAPSEKLEQILRTCSRDPTQAIANRLKEMFEIYSQHFQPDEDFSNCAKEIASKHFRFAEMLYYKVLESVIEQEQKRLGDMDLSGILEQDAFHRSLLACCLEVVTFSYKPPGNFPFITEIFDVPLYHFYKVIEVFIRAEDGLCREVVKHLNQIEEQILDHLAWKPESPLWEKIRDNENRVPTCEEVMPPQNLERADEICIAGSPLTPRRVTEVRADTGGLGRSITSPTTLYDRYSSPPASTTRRRLFVENDSPSDGGTPGRMPPQPLVNAVPVQNVSGETVSVTPVPGQTLVTMATATVTANNGQTVTIPVQGIANENGGITFFPVQVNVGGQAQAVTGSIQPLSAQALAGSLSSQQVTGTTLQVPGQVAIQQISPGGQQQKQGQSVTSSSNRPRKTSSLSLFFRKVYHLAAVRLRDLCAKLDISDELRKKIWTCFEFSIIQCPELMMDRHLDQLLMCAIYVMAKVTKEDKSFQNIMRCYRTQPQARSQVYRSVLIKGKRKRRNSGSSDSRSHQNSPTELNKDRTSRDSSPVMRSSSTLPVPQPSSAPPTPTRLTGANSDMEEEERGDLIQFYNNIYIKQIKTFAMKYSQANMDAPPLSPYPFVRTGSPRRIQLSQNHPVYISPHKNETMLSPREKIFYYFSNSPSKRLREINSMIRTGETPTKKRGILLEDGSESPAKRICPENHSALLRRLQDVANDRGSH", "values": [{"measurement": "binding", "setting": "[2]", "value": "binds"}, {"measurement": "binding", "setting": "[3]", "value": "binds"}]}, {"binder": "Gluc2-pRb (protein, UniProt P06400 1-928) MPPKTPRKTAATAAAAAAEPPAPPPPPPPEEDPEQDSGPEDLPLVRLEFEETEEPDFTALCQKLKIPDHVRERAWLTWEKVSSVDGVLGGYIQKKKELWGICIFIAAVDLDEMSFTFTELQKNIEISVHKFFNLLKEIDTSTKVDNAMSRLLKKYDVLFALFSKLERTCELIYLTQPSSSISTEINSALVLKVSWITFLLAKGEVLQMEDDLVISFQLMLCVLDYFIKLSPPMLLKEPYKTAVIPINGSPRTPRRGQNRSARIAKQLENDTRIIEVLCKEHECNIDEVKNVYFKNFIPFMNSLGLVTSNGLPEVENLSKRYEEIYLKNKDLDARLFLDHDKTLQTDSIDSFETQRTPRKSNLDEEVNVIPPHTPVRTVMNTIQQLMMILNSASDQPSENLISYFNNCTVNPKESILKRVKDIGYIFKEKFAKAVGQGCVEIGSQRYKLGVRLYYRVMESMLKSEEERLSIQNFSKLLNDNIFHMSLLACALEVVMATYSRSTSQNLDSGTDLSFPWILNVLNLKAFDFYKVIESFIKAEGNLTREMIKHLERCEHRIMESLAWLSDSPLFDLIKQSKDREGPTDHLESACPLNLPLQNNHTAADMYLSPVRSPKKKGSTTRVNSTANAETQATSAFQTQKPLKSTSLSLFYKKVYRLAYLRLNTLCERLLSEHPELEHIIWTLFQHTLQNEYELMRDRHLDQIMMCSMYGICKVKNIDLKFKIIVTAYKDLPHAVQETFKRVLIKEEEYDSIIVFYNSVFMQRLKTNILQYASTRPPTLSPIPHIPRSPYKFPSSPLRIPGGNIYISPLKSPYKISEGLPTPTKMTPRSRILVSIGESFGTSEKFQKINQMVCNSDRVLKRSAEGSNPPKPLKKLRFDIEGSDEADGSKHLPGESKFQQKLAEMTSTRTRMQKQKMNDSMDTSNKEEK", "values": [{"measurement": "binding", "setting": "[4]", "value": "binds"}]}, {"binder": "Gluc2-p107 (protein, UniProt P28749 1-1068) MFEDKPHAEGAAVVAAAGEALQALCQELNLDEGSAAEALDDFTAIRGNYSLEGEVTHWLACSLYVACRKSIIPTVGKGIMEGNCVSLTRILRSAKLSLIQFFSKMKKWMDMSNLPQEFRERIERLERNFEVSTVIFKKYEPIFLDIFQNPYEEPPKLPRSRKQRRIPCSVKDLFNFCWTLFVYTKGNFRMIGDDLVNSYHLLLCCLDLIFANAIMCPNRQDLLNPSFKGLPSDFHTADFTASEEPPCIIAVLCELHDGLLVEAKGIKEHYFKPYISKLFDRKILKGECLLDLSSFTDNSKAVNKEYEEYVLTVGDFDERIFLGADAEEEIGTPRKFTRDTPLGKLTAQANVEYNLQQHFEKKRSFAPSTPLTGRRYLREKEAVITPVASATQSVSRLQSIVAGLKNAPSDQLINIFESCVRNPVENIMKILKGIGETFCQHYTQSTDEQPGSHIDFAVNRLKLAEILYYKILETVMVQETRRLHGMDMSVLLEQDIFHRSLMACCLEIVLFAYSSPRTFPWIIEVLNLQPFYFYKVIEVVIRSEEGLSRDMVKHLNSIEEQILESLAWSHDSALWEALQVSANKVPTCEEVIFPNNFETGNGGNVQGHLPLMPMSPLMHPRVKEVRTDSGSLRRDMQPLSPISVHERYSSPTAGSAKRRLFGEDPPKEMLMDKIITEGTKLKIAPSSSITAENVSILPGQTLLTMATAPVTGTTGHKVTIPLHGVANDAGEITLIPLSMNTNQESKVKSPVSLTAHSLIGASPKQTNLTKAQEVHSTGINRPKRTGSLALFYRKVYHLASVRLRDLCLKLDVSNELRRKIWTCFEFTLVHCPDLMKDRHLDQLLLCAFYIMAKVTKEERTFQEIMKSYRNQPQANSHVYRSVLLKSIPREVVAYNKNINDDFEMIDCDLEDATKTPDCSSGPVKEERGDLIKFYNTIYVGRVKSFALKYDLANQDHMMDAPPLSPFPHIKQQPGSPRRISQQHSIYISPHKNGSGLTPRSALLYKFNGSPSKSLKDINNMIRQGEQRTKKRVIAIDSDAESPAKRVCQENDDVLLKRLQDVVSERANH", "values": [{"measurement": "binding", "setting": "[4]", "value": "binds"}]}, {"binder": "endogenous ΔNp73α (38HK) (protein, UniProt O15350-8 1-587) MLYVGDPARHLATAQFNLLSSTMDQMSSRAASASPYTPEHAASVPTHSPYAQPSSTFDTMSPAPVIPSNTDYPGPHHFEVTFQQSSTAKSATWTYSPLLKKLYCQIAKTCPIQIKVSTPPPPGTAIRAMPVYKKAEHVTDVVKRCPNHELGRDFNEGQSAPASHLIRVEGNNLSQYVDDPVTGRQSVVVPYEPPQVGTEFTTILYNFMCNSSCVGGMNRRPILIIITLEMRDGQVLGRRSFEGRICACPGRDRKADEDHYREQQALNESSAKNGAASKRAFKQSPPAVPALGAGVKKRRHGDEDTYYLQVRGRENFEILMKLKESLELMELVPQPLVDSYRQQQQLLQRPSHLQPPSYGPVLSPMNKVHGGMNKLPSVNQLVGQPPPHSSAATPNLGPVGPGMLNNHGHAVPANGEMSSSHSAQSMVSGSHCTPPPPYHADPSLVSFLTGLGCPNCIEYFTSQGLQSIYHLQNLTIEDLGALKIPEQYRMTIWRGLQDLKQGHDYSTAQQLLRSSNAATISIGGSGELQRQRVMEAVHFRVRHTITIPNRGGPGGGPDEWADFGFDLPDCKARKQPIKEEFTEAEIH", "values": [{"measurement": "binding", "setting": "[5]", "value": "binds"}]}]}
